# Assay results: the supplement of paper PMC8728848
# Some of the results follow.
# B1: FaeGab (Escherichia coli) (protein)
# chain: WMTGDFNGSVDIGGSITADDYRQKWEWKVGTGLNGFGNVLNDLTNGGTKLTITVTGNKPILLGRTKEAFATPVSGGVDGIPQIAFTDYEGASVKLRNTDGETNKGLAYFVLPMKNAEGTKVGSVKVNASYAGVFGKGGVTSADGELFSLFADGLRAIFYGGLTTTVSGAALTSGSAAAARTELFGSLSRNDILGQIQRVNANITSLVDVAGSYREDMEYTDGTVVSAAYALGIANGQTIEATFNQAVTTSTQWSAPLNVAITYY
# Assays:
# Test in all cases: glycan array binding signal (z-score within array); higher = stronger binding
# Conditions in all cases: glycan notation: IUPAC condensed, linker removed
# [1] = target: GlcNAc(a1-3)Gal(b1-4)GlcNAc
# In short: (§1)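 The binding signal is a Z-score computed within each array. Data were drawn from 3228 arrays in the Consortium for Functional Glycomics database, restricted to those with a known protein sequence. Scores were averaged over arrays of the same protein sequence at different concentrations or buffers, and over linkers, and negative values can be taken as non-binding.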
# [2] = target: GlcNAc(a1-6)Gal(b1-4)GlcNAc
# In short: as §1
# [3] = target: GlcNAc(b1-2)Gal(b1-3)GalNAc
# In short: as §1
# [4] = target: GlcNAc(b1-2)Man(a1-3)[GlcNAc(b1-2)Man(a1-6)]Man(b1-4)GlcNAc(b1-4)GlcNAc
# In short: as §1
# [5] = target: GlcNAc(b1-3)Gal
# In short: as §1
# [6] = target: GlcNAc(b1-3)Gal(b1-3)GalNAc
# In short: as §1
# [7] = target: GlcNAc(b1-3)Gal(b1-4)Glc
# In short: as §1
# [8] = target: GlcNAc(b1-3)Gal(b1-4)GlcNAc
# In short: as §1
# [9] = target: GlcNAc(b1-3)Gal(b1-4)GlcNAc(b1-3)Gal(b1-4)GlcNAc
# In short: as §1
# [10] = target: GlcNAc(b1-3)GalNAc
# In short: as §1
# [11] = target: GlcNAc(b1-3)[GlcNAc(b1-6)]Gal(b1-4)GlcNAc
# In short: as §1
# [12] = target: GlcNAc(b1-3)[GlcNAc(b1-6)]GalNAc
# In short: as §1
# [13] = target: GlcNAc(b1-3)[GlcNAc(b1-6)]GlcNAc(b1-4)GlcNAc
# In short: as §1
# [14] = target: GlcNAc(b1-4)Gal(b1-4)GlcNAc
# In short: as §1
# [15] = target: GlcNAc(b1-4)GlcNAc(b1-4)GlcNAc
# In short: as §1
# [16] = target: GlcNAc(b1-4)GlcNAc(b1-4)GlcNAc(b1-4)GlcNAc(b1-4)GlcNAc
# In short: as §1
# [17] = target: GlcNAc(b1-4)GlcNAc(b1-4)GlcNAc(b1-4)GlcNAc(b1-4)GlcNAc(b1-4)GlcNAc
# In short: as §1
# [18] = target: GlcNAc(b1-4)[GlcNAc(b1-6)]GalNAc
# In short: as §1
# [19] = target: GlcNAc(b1-6)Gal(b1-4)GlcNAc
# In short: as §1
# [20] = target: GlcNAc(b1-6)GalNAc
# In short: as §1
# [21] = target: Kdn(a2-3)Gal(b1-3)GlcNAc
# In short: as §1
# [22] = target: Kdn(a2-3)Gal(b1-4)GlcNAc
# In short: as §1
# [23] = target: Man(a1-2)Man(a1-2)Man(a1-3)Man
# In short: as §1
# [24] = target: Man(a1-2)Man(a1-2)Man(a1-6)[Man(a1-3)]Man
# In short: as §1
# [25] = target: Man(a1-2)Man(a1-3)Man
# In short: as §1
# [26] = target: Man(a1-2)Man(a1-3)[Man(a1-2)Man(a1-6)]Man
# In short: as §1
# [27] = target: Man(a1-2)Man(a1-3)[Man(a1-2)Man(a1-6)]Man(a1-6)[Man(a1-2)Man(a1-2)Man(a1-3)]Man(b1-4)GlcNAc(b1-4)GlcNAc
# In short: as §1
# [28] = target: Man(a1-2)Man(a1-3)[Man(a1-6)]Man(a1-6)[Man(a1-2)Man(a1-3)]Man(b1-4)GlcNAc(b1-4)GlcNAc
# In short: as §1
# [29] = target: Man(a1-2)Man(a1-6)[Man(a1-3)]Man(a1-6)[Man(a1-2)Man(a1-2)Man(a1-3)]Man(b1-4)GlcNAc(b1-4)GlcNAc
# In short: as §1
# [30] = target: Man(a1-3)[Man(a1-6)]Man
# In short: as §1
# [31] = target: Man(a1-3)[Man(a1-6)]Man(a1-6)[Man(a1-2)Man(a1-3)]Man(b1-4)GlcNAc(b1-4)GlcNAc
# In short: as §1
# [32] = target: Man(a1-3)[Man(a1-6)]Man(a1-6)[Man(a1-3)]Man(b1-4)GlcNAc(b1-4)GlcNAc
# In short: as §1
# [33] = target: Man(a1-3)[Man(a1-6)]Man(b1-4)GlcNAc(b1-4)GlcNAc
# In short: as §1
# [34] = target: Man(b1-4)GlcNAc
# In short: as §1
# [35] = target: Neu5Ac(a2-3)Gal
# In short: as §1
# [36] = target: Neu5Ac(a2-3)Gal(b1-3)GalNAc
# In short: as §1
# [37] = target: Neu5Ac(a2-3)Gal(b1-3)GalNAc(b1-3)Gal(a1-4)Gal(b1-4)Glc
# In short: as §1
binder,measurement,setting,value
B1,glycan array binding signal (z-score),[1],0.193
same,glycan array binding signal (z-score),[2],0.424
same,glycan array binding signal (z-score),[3],0.128
same,glycan array binding signal (z-score),[4],0.323
same,glycan array binding signal (z-score),[5],0.318
same,glycan array binding signal (z-score),[6],-0.008
same,glycan array binding signal (z-score),[7],0.036
same,glycan array binding signal (z-score),[8],-0.37
same,glycan array binding signal (z-score),[9],-0.334
same,glycan array binding signal (z-score),[10],0.305
same,glycan array binding signal (z-score),[11],0.15
same,glycan array binding signal (z-score),[12],0.839
same,glycan array binding signal (z-score),[13],0.92
same,glycan array binding signal (z-score),[14],0.137
same,glycan array binding signal (z-score),[15],0.132
same,glycan array binding signal (z-score),[16],0.153
same,glycan array binding signal (z-score),[17],0.04
same,glycan array binding signal (z-score),[18],0.249
same,glycan array binding signal (z-score),[19],0.324
same,glycan array binding signal (z-score),[20],0.537
same,glycan array binding signal (z-score),[21],-0.305
same,glycan array binding signal (z-score),[22],-0.278
same,glycan array binding signal (z-score),[23],0.394
same,glycan array binding signal (z-score),[24],1.91
same,glycan array binding signal (z-score),[25],-0.083
same,glycan array binding signal (z-score),[26],1.34
same,glycan array binding signal (z-score),[27],0.723
same,glycan array binding signal (z-score),[28],1.02
same,glycan array binding signal (z-score),[29],1.2
same,glycan array binding signal (z-score),[30],-0.091
same,glycan array binding signal (z-score),[31],0.241
same,glycan array binding signal (z-score),[32],-0.255
same,glycan array binding signal (z-score),[33],-0.304
same,glycan array binding signal (z-score),[34],-0.276
same,glycan array binding signal (z-score),[35],-0.477
same,glycan array binding signal (z-score),[36],-0.435
same,glycan array binding signal (z-score),[37],-0.363
